The full ranking holds about 33,000 sequences; the median of “E-score (-0.5 to 0.5)” is about -0.056, and the highest 2% start at about 0.38. The list shows a part of the results.
The sequences below were run against Stb4 (UniProt P50104) (assay: PBM E-score (8-mer binding enrichment) (E-score (-0.5 to 0.5)); higher = stronger / more preferred TF binding; most listed sequences are background and not binding sites). Settings: protein concentration: 200 nM; construct: GST-DNA-binding domain.
In short: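 GST-tagged yeast TFs (full-length or DNA-binding domain) were made by PURExpress in vitro transcription/translation and applied at about 100-200 nM to universal all-10-mer Agilent arrays. The arrays were made double-stranded by primer extension, on fresh or once-stripped slides. Bound protein was detected with fluorescent anti-GST, and scans were normalised with masliner. Each ungapped eight-base word, pooled with its reverse complement, received an E-score (modified Wilcoxon-Mann-Whitney statistic) from the Universal PBM Analysis Suite.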

Sequence	PBM E-score
GGGTCTTA	0.0444
CACGGCAC	0.162
ACAATCAG	-0.107
AGTACGAT	-0.0788
CGGGGCGA	0.148
AACCCAAG	-0.101
CAGTAGGC	-0.298
TGTACGAA	-0.0828
CCGCGCGA	0.0755
GTTATATA	-0.0331
CTCGAGAC	-0.0401
ATCAACTC	-0.165
AAGTTGCA	-0.0963
AAGCGGCA	0.133
GAAGCAAA	-0.131
CACGTCGC	-0.0175
GCAGGAGC	-0.179
ATCCACAA	-0.164
GAGATATA	0.147
ATTCCTTC	0.0813
CTATCGGC	0.26
CGTTGTGC	-0.0543

Sequence	PBM E-score
AAGGCGAC	-0.0376
ACGGCAGT	0.0924
CACACTCG	0.183
CAGCTGAC	-0.021
CCTTGTAA	-0.0698
CCGCCCGC	0.246
ATTATTGC	0.0604
GATCAGAC	-0.18
AAGCCTCG	0.163
TAGATTAA	0.0206
CGAGCGTC	0.00847
CCTTCGAA	-0.117
CCCGGCTC	0.285
AGACTCTA	-0.132
CCCCTGTA	-0.144
AACAATCC	0.0191
CAATCAAA	-0.196
ACACTAAT	-0.0952
CGGCTGTC	0.264
AATACGGC	0.0867
AGTTGTGA	-0.0949
ACGAATAC	-0.0867

Sequence	PBM E-score
GGAAACAA	0.228
CCAAACAA	0.0125
ACACCATG	-0.303
AGCAGGGA	-0.286
AAAACCGA	0.303
TCATGACA	-0.0776
GAACGACC	-0.204
CCTGAAGA	-0.177
ATTAATCA	-0.15
TCCCGTCA	0.185
AATCGAGG	-0.0911
AATGTCTG	0.0612
CGCGATGA	-0.121
CTCCACAG	-0.222
CAATGTAA	0.112
AATAGAGT	-0.184
CAAGTGAG	-0.259
TAAAACGA	-0.215
ACAACCAG	-0.0185
ATGTACCC	0.121
ATGGCAAA	-0.0662
AACATGAG	-0.00858

Sequence	PBM E-score
CTACACGA	-0.0779
AAACATCC	0.38
CGCATGAA	-0.0756
AGAAGAAC	-0.0371
AATGTATC	0.0613
AGGCACAT	-0.0897
CACACACA	-0.176
CAGCAGAA	-0.00769
GCGTCGAA	-0.0895
CCTGCGAA	-0.17
CCCATCCC	0.0483
CTAACTAG	-0.0131
TGTGGTAA	-0.0792
AGTCACAT	-0.106
CGTTAAGA	-0.196
CTCACAAC	0.0516
TAATCGGA	0.324
ATCCTCGA	-0.25
AACCGGAC	0.192
ACGGAAAA	0.325
